Read counts are not given, so values of variants with three or more changes are uncertain.

Drawing on the RNAGym collection of RNA variant scans (doi:10.7554/elife.90254), this text covers self-cleavage for 19 variants.

To fix the notation:
B1: LINE1-full (parent)
chain: UACGUAGGUGGUUUUCCCCUGAUAGUGCUAAGGGGGCCUGGAAGUUUGGACUGGGCAGAGCUCAACACAGCGUGGCAAAGUGGCUGUGGCUAGACUGCCUCUCUGGAUUCCUCGUCACUCAGCAGGGCAUCUCUGAGAGAAAUGCC

The data set covers variants of B1. The data set can be described thus: self-cleavage, relative activity (ratio to wild type); higher = more cleavage; in vitro, sequencing; the parent is a self-cleaving ribozyme.
For the variant UACGUAGGUGGUUUUCCCCUGAUAGUGCUAAGGGGGCCUGGAAGUUUGGACUGGGCAAAGCUCAACACAGGGUGGCAAAGUGGCUGUGGCUAGACUGCCUCUCUGGAUUCCUCGUCACUCAGCAGGGCAUCUCUGAGAGAAACGCC [G58A C71G U143C], the self-cleavage turned out to be 0.03.

With UACGUAGGUGGUUUUCCCCUGAUAGUGCUAAGGGGGCCUGGAAGUUUGGACUGGGCUGAGCCCAACACAGCGUGGCAAAGUGGCUGUGGCUAGACUGCCUCUCUGGAUUCCUCGUCACUCAGCAGGGCAUCCCUGAGAGAGAUGCC [A57U U62C U132C A141G], the self-cleavage is 0.13.

As for UACGUAGGUGGUUUUCCCCUGAUAGUGCUAAGGGGGCCUGGAAGUUUGGACUGGGCUGAGCUCAACACAGCGCGGCAAAGUGGCUGUGGCCUGACUGCCUCACUGGAUUCCUCGUCACUCAGCAGGGCGUCUCAGAGAGAAAUGCC [A57U U73C U91C A92U U102A A129G U134A], the self-cleavage was determined as 0.

UACGUAGGUGGUUUUCCCCUGAUAGUGCUAAGGGGGCCUGGAAGUUUGGACUGGGCUGAGCUCAACACAGUGUGGCAAAGUGGCUGUGGCUAGACUGCCUCUCUGGAUUCCUCGUCACUCGGCAGGGCAUCUCUGAGAGAAAUGCC [A57U C71U A121G]: the self-cleavage turned out to be 0.05.

For the variant UACGUAGGUGGUUUUCCCCUGAUAGUGCUAAGGGGGCCUGGAAGUUUGGACUGGGCAAAGCCCAACACAGCGUGGCAAAGUGGCUGUGGCUAGACUGCCUCUCUGGAUUCCUCGUCACUCAGCAGGGCAUCUCUGGGAGAAAUGCC [G58A U62C A136G], the self-cleavage amounted to 0.

Take UACGUAGGUGGUUUUCCCCUGAUAGUGCUAAGGGGGCCUGGAAGUUUGGACUGGGCUGAGCCCAACACAGCGUGGCAAAGUGGCUGUGGCUAGACUGCCUCUCUGGAUUCCUCGUCACUCAGCGGGGCAUCUCUGAGAGAAAUGCC [A57U U62C A124G]: the self-cleavage came out at 0.08.

As for UACGUAGGUGGUUUUCCCCUGAUAGUGCUAAGGGGGCCUGGAAGUUUGGACUGGGCAUAGCUCAACACAGCGAGGCAAGGUGGCUGUGGCUAGACUGCCCCCCUGGAUUCCUCGUCACUCAGCAGGGCAUCUCUGUGAGAAAUGCC [G58U U73A A79G U100C U102C A136U], the self-cleavage came out at 0.04.

With UACGUAGGUGGUUUUCCCCUGAUAGUGCUAAGGGGGCCUGGAAGUUUGGACUGGGCUGAGCUCAACACAGCGUGGCAAAGUGGCUGUGGCUAGACUGCCUCUCUGGAUUCCUCGACACUCAGCAGGGCAUCUCUGAGGGGAAUGCC [A57U U115A A138G A140G], the self-cleavage amounted to 0.

Turning to UACGUAGGUGGUUUUCCCCUGAUAGUGCUAAGGGGGCCUGGAAGUUUGGACUGGGCUGAGCUCAACACAGCGCGGCAAAGUGGCUGUGGCUAGACUGCCUCUCUGGAUUCCUCGUCACUCUGCAGGGCAUCUCUGAGAGAAAUGCC [A57U U73C A121U], the self-cleavage was found to be 0.11.

UACGUAGGUGGUUUUCCCCUGAUAGUGCUAAGGGGGCCUGGAAGUUUGGACUGGGCUGAGCUCAACACAGCGUGGCAAAGUGGCUGUGGCUAGACUGCCUCUCUGGAUUCCUCGUCACCCAGCAGGGCAUCUCUGGGAGAAAUGCC [A57U U119C A136G]: the self-cleavage stood at 0.21.

Turning to UACGUAGGUGGUUUUCCCCUGAUAGUGCUAAGGGGGCCUGGAAGUUUGGACUGGGCUGAGCCCAACACAACGUGGCAAAGUGGCUGUGGCUAGACUGCCUCUCUGGAUUCCUCGUCACUCAGCAGGGCAUCUCUGAGAGAAAUGCC [A57U U62C G70A], the self-cleavage amounted to 0.09.

For UACGUAGGUGGUUUUCCCCUGAUAGUGCUAAGGGGGCCUGGAAGUUUGGACUGGGCUGAGCUCAACACAGCGUGGCAAAGUGGCUGUGGCUAGACUGCCUCCCUGGAUUCCUCGUCACUCAGCAGUGCAUCUCUGAGAGAAAUGCC [A57U U102C G126U], the self-cleavage came to 0.1.

Turning to UACGUAGGUGGUUUUCCCCUGAUAGUGCUAAGGGGGCCUGGAAGUUUGGACUGGGCUGAGCUCAACACAGCGUGGCAAAGUGGCUGUGGCUAGACUGCCUCUCUGGAUUCCUCGUCACUCAGCAGGGCAUCUCUGAGAAUAAUGCC [A57U G139A A140U], the self-cleavage is 0.08.

As for UACGUAGGUGGUUUUCCCCUGAUAGUGCUAAGGGGGCCUGGAAGUUUGGACUGGGCUGAGCUCAACACAGCGUGGCAAAGUGGCUGUGGCUAGACUGCCUCUCUGGAUUCCUCGCCACUCAGCAGGGCAUCUCUGAGAGGAAUGCC [A57U U115C A140G], the self-cleavage was determined as 0.08.

Consider UACGUAGGUGGUUUUCCCCUGAUAGUGCUAAGGGGGCCUGGAAGUUUGGACUGGGCUGAGCUCAAUACAGCGUGGCAAAGUGGCUGUGGCUAGACUACCUCUCUGGAUUCCUCGUCACUCAGCAGGGCAUCUCUGAGAGAAAUGCC [A57U C66U G97A], for which the self-cleavage was found to be 0.05.

UACGUAGGUGGUUUUCCCCUGAUAGUGCUAAGGGGGCCUGGAAGUUUGGACUGGGCAAAGCUCAACACAGCGUGGCAAAGUGGCUGUGGGUAGACUGCCUCUCUGGAUUCCUCGUCACUCAGCGGGGCAUCUCUGAGAGAAUUGCC [G58A C90G A124G A142U]: the self-cleavage is 0.04.

As for UACGUAGGUGGUUUUCCCCUGAUAGUGCUAAGGGGGCCUGGAAGUUUGGACUGGGCUGAGCUCAACACAGGGUGGCAAAGUGGCUGUGGCUAGACCGCCUCUCUGGAUUCCUCGUCACUCAGCAGGGCAUCUCUGAGAGAAAUGCC [A57U C71G U96C], the self-cleavage came out at 0.02.

Turning to UACGUAGGUGGUUUUCCCCUGAUAGUGCUAAGGGGGCCUGGAAGUUUGGACUGGGCACAGCUCAACACAGCGGGGCAAAGUGGCUGUGACUAGACUGCCUCUCUGGACUCCUCGUUACUCAGCAGGGCAUCUCUGAGAGAAAUGCC [G58C U73G G89A U108C C116U], the self-cleavage came out at 0.01.

Turning to UACGUAGGUGGUUUUCCCCUGAUAGUGCUAAGGGGGCCUGGAAGUUUGGACUGGGCUGAGCUCAACACAGCGUGGUAAAGUGGCUGUGGCUAGACUGCCUCUCUGGAUUCCUCGUCACUCAGCAGGGCACCUCUGAGAGAAAUGCC [A57U C76U U130C], the self-cleavage is 0.17.
